# Screen size: about 340,000 compounds; about 6,900 (2%) were called active. No stated cut-off is given here; in the data, active means inhibition above about 30%; inactive means below that, where a call was filed. The list shows a part of the results, in another mix than the full data. The source gives no active or inactive call for entries shown without one.
# Molecular target: D(2) dopamine receptor (Homo sapiens) (UniProt P14416)
# Assay: HTS Assay for Allosteric Antagonists of the Human D2 Dopamine Receptor: Primary Screen for Antagonists; further: 0% is about no effect
# Details: HEK293 TREx D2 cells, calcium flux, dopamine EC80; at 10 µM; stronger effect = higher value
# Outline: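 In this primary screen, negative modulation is detected by tracking calcium flux after an EC80 dopamine challenge in inducible HEK293 T-REx D2 cells preexposed to test compound for 180 s.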
# UniProt P14416, sequence (P14416 whole entry, looked up): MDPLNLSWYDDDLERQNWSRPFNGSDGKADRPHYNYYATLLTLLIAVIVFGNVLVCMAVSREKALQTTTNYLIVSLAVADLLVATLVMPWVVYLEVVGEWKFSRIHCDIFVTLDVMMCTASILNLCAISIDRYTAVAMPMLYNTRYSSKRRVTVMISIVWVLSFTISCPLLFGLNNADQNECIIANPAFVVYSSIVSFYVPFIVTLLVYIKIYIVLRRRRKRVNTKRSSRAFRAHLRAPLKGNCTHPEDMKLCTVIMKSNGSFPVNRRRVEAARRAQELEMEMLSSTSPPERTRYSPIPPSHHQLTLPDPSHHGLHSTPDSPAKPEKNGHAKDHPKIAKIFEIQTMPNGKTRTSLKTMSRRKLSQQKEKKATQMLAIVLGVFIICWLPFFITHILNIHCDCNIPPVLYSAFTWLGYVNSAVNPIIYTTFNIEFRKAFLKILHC
row,SMILES,inhibition
1,CCN(CC)S(=O)(=O)c1ccc2c(c1)c(=O)c(C(=O)N(C)Cc1ccccc1)cn2C,8.89%
2,Cc1cc(C)cc(NC(=O)CSc2nnc(COc3ccccc3Cl)o2)c1,-14.4%
3,Cc1ccc(C)c(NC(=O)CCCN2C(=O)COc3ccc(C)cc32)c1,10.5%
4,CN(C)c1ccc(CNC(=O)c2cc3ccccn3n2)cc1,2.19%
5,Cn1cnc2c(=O)oc3ccc(S(=O)(=O)N4CCN(c5ccccc5)CC4)cc3c21,4.01%
6,CC(C)(C)OC(=O)N1CCC(c2c(C(=O)Nc3cccc(C(F)(F)F)c3)cnn2-c2ccc(F)cc2F)CC1,12.4%
7,COc1ccc(OC)c(NCc2cccn2-c2nnc(N3CCC(C)CC3)s2)c1,-10.1%
8,CC(C)(C)OC(=O)N1CCC(c2c(C(=O)Nc3ccc4c(c3)OCCO4)cnn2-c2ccc(F)cc2)CC1,5.39%
9,Cc1ccc(CNC(C)c2ccccc2)s1 (stereo not given),-1.41%
10,Cc1cccc(-c2nc3c(cnn3-c3ccccc3)c(=O)n2-c2cccc(Cl)c2)c1,11.8%
11,O=C(NCCc1ccccc1)c1ccc2c(c1)N(Cc1ccccc1)C(=O)c1ccccc1S2=O (stereo not given),-0.435%
12,Cc1ccc(CCNC(=O)CN2C(=O)COc3ccc(S(=O)(=O)N4CCCCC4)cc32)cc1,5.9%
13,Cc1ccc(C(CC(=O)NCC2(c3ccccc3)CCCC2)c2ccccc2)c(O)c1 (stereo not given),1.76%
14,Cc1ccc(Nc2nnc(-c3ccc(C)c(S(=O)(=O)N4CCCCC4)c3)c3ccccc23)cc1,8.26%
15,O=C(CC1SC(N2CCOCC2)=NC1=O)Nc1ccccc1Cl (stereo not given),active: 39.7%
16,CCOc1ccc2c(c1)[C@@H]1C=CC[C@@H]1[C@H](c1ccccc1Cl)N2,4.54%
17,COc1ccc(N2CCN(C(=O)C3CCN(S(=O)(=O)Cc4ccccc4)CC3)CC2)cc1,-4.19%
18,Cc1ccc(CNC(=O)CN2C(=O)C3(SCC(=O)N3c3cc(C)cc(C)c3)c3ccccc32)cc1 (stereo not given),-15%
19,Cc1nc(-c2cccc(F)c2)sc1CCNC(=O)c1ccc(F)c(F)c1,2.08%
20,CN(C(=O)CSc1nc2ccccc2n1CC(=O)N(C)c1ccc(F)cc1)c1ccccc1,-6.43%

row,SMILES,inhibition
1,COC(=O)C1C(O)CCC2CN3CCc4c([nH]c5ccccc45)C3CC21 (stereo not given),active: 49.9%
2,COc1cc(NC(=O)c2cc(-c3ccc(Cl)c(Cl)c3)on2)cc(OC)c1OC,-5.05%
3,Cc1c(CNCCc2ccc(S(N)(=O)=O)cc2)c(C(=O)O)c(C)n1Cc1ccc(Cl)cc1,-8.61%
4,CCCCC(=O)Nc1nnc(S(=O)(=O)N(CC)c2cc(C)cc(C)c2)s1,2.84%
5,CCOc1ccc(/C=C(\C#N)C(=O)Nc2sc3c(c2C(=O)OC)C(C(=O)OC)CC3)cc1OC (stereo not given),-5.68%
6,O=C(C1CC1)N1CCc2cc(Br)cc(S(=O)(=O)N3CCN(c4ccccc4)CC3)c21,5.55%
7,CCc1ccc(NS(=O)(=O)c2ccc(C(=O)N(C)C)s2)cc1,10.1%
8,CCc1ccc(-c2cn3c(n2)sc2cc(C(=O)NCC(C)c4ccccc4)ccc23)cc1 (stereo not given),-17.6%
9,CCc1ccc(N2CCn3c2nc2c3c(=O)n(Cc3c(F)cccc3Cl)c(=O)n2C)cc1,14.3%
10,Cc1ccc2nc(NS(=O)(=O)c3ccc(Cl)cc3)c(Nc3ccc(C(=O)O)cc3)nc2c1,3.75%
11,Cc1nnc2c(N3CCN(c4ccccc4)CC3)nc3ccc(C(=O)c4ccccc4)cc3n12,-3.31%
12,Cn1cc(-c2cc3n(n2)CCC(=O)N3CCCC(=O)Nc2ccc(F)cc2F)c2ccccc21,-5.79%
13,CC(=O)N(Cc1cccnc1)c1nc2c(C)cccc2s1,-28.4%
14,COc1ccc(S(=O)(=O)NCc2ccc3c(c2)CCN3C(=O)c2ccc(C)cc2)cc1Cl,-6.45%
15,CCOC(=O)C1CCN(C(=O)Cn2nc(C)n3c(cc4cc(C)ccc43)c2=O)CC1,-2.99%
16,COc1ccc(CCn2c(=O)c3cccnc3n(CC(=O)Nc3cccc(C)c3)c2=O)cc1OC,8.56%
17,Cc1cc2nc(-c3ccc(Br)cc3)cc(C(F)(F)F)n2n1,-8.26%
18,CC1(C)CC(=O)C/C(=N\NC(=O)C2CC23CCC3)C1 (stereo not given),active: 47.1%
19,N#CCCSc1ncnc2c1oc1ccccc12,active: 36.2%
20,Cc1ccc(NC(=O)CSc2nc3c(oc4ccccc43)c(=O)n2Cc2ccco2)cc1,3.8%

row,SMILES,inhibition
1,CCN(CC)CCNC(=O)c1ccc(Sc2ccc(C)cc2)c(NC(C)=O)c1,active: 53.6%
2,CCCn1c(=O)c2sccc2n2c(CCCC(=O)N3CCN(c4cccc(C)c4C)CC3)nnc12,-15%
3,CC(C)Oc1ccc(CNC(=O)c2cnc3sc(N4CCCCC4)nn3c2=O)cc1,1.88%
4,N#C/C(=C\c1ccccc1)C(=O)Nc1sc2c(c1C(N)=O)CCC2,1.51%
5,Cn1cnc(S(=O)(=O)N2CCC(C(=O)N3CCN(c4ccc(Cl)cc4)CC3)CC2)c1,-5.93%
6,CCc1ccccc1NC(=O)C1COc2ccccc2C1 (stereo not given),10.3%
7,COc1cc2c(-c3ccc(C)cc3)nc3c(c(C)nn3-c3ccccc3)c2cc1OC,-15.6%
8,Cc1ccc(NC(=O)CCN2C(=O)NC3(CCCC3)C2=O)c(C)c1,active: 50.6%
9,CCc1ccc(Sc2cc(C(=O)NCCCOC(C)C)c3ccccc3n2)cc1,4.84%
10,N#Cc1ccc(OC(=O)c2cc(-c3ccc4c(c3)OCCO4)on2)cc1,-2.7%
11,Cc1cc(C)cc(OCC(=O)Nc2ccc(Cl)c(-c3nc4ncccc4o3)c2)c1,2.37%
12,CCOC(=O)c1oc2ccc(S(=O)(=O)n3nc(-c4cc(OC)cc(OC)c4)cc3N)cc2c1C,9.42%
13,CC(=O)Nc1ccc(-n2c(CCC(=O)O)ccc2-c2ccc(C)cc2)cc1,-6.43%
14,CCOC(=O)N1CCC(N2CCCC(C(=O)c3ccccc3OC)C2)CC1 (stereo not given),active: 70.3%
15,CSc1ccc(CC2C(=O)Nc3ccccc32)cc1 (stereo not given),10.9%
16,O=C(Cc1ccccc1F)N1CCC(c2nc3c(nnn3Cc3ccc(F)cc3)c(=O)[nH]2)CC1,24.6%
17,CC1CCC(NC(=O)c2cc3c(s2)CS(=O)(=O)C3)CC1 (stereo not given),active: 41.3%
18,CCc1ccc(NC(=O)C2=CC(c3ccc4c(c3)OCO4)=NS(=O)(=O)N2C)cc1,-10.7%
19,Cc1ccc(-c2noc(CCC(=O)NCCCN3CCN(c4ccc(F)cc4)CC3)n2)cc1,active: 60.7%
20,COc1ccccc1CNC(=O)CSc1ncc2c(n1)-c1cc(Cl)ccc1N(Cc1ccccc1)S2(=O)=O,1.17%

# — PubChem BioAssay AID485344 (National Center for Advancing Translational Sciences (NCATS), 2010)
